No constants are given. Whether binding was seen depends on the method and setting. Binding seen in cells or lysates may run through a third protein. Some binding calls cover weakened binding; strength is not graded here. Sequences can lack the tags named with a protein.
Legend:
Assay in all cases: co-IP; FLAG IP: HEK293T cells transfected, lysed in TNE buffer (150 mM NaCl, 1% NP40), anti-FLAG M2 Affinity Gel, eluted with FLAG peptide, blotted with anti-myc
[1] = target: T1, FLAG-tagged full-length mouse SREBF1 (pcDNA3.1-FLAG-Srebf1) (mouse) (UniProt Q9WTN3)
T1 sequence: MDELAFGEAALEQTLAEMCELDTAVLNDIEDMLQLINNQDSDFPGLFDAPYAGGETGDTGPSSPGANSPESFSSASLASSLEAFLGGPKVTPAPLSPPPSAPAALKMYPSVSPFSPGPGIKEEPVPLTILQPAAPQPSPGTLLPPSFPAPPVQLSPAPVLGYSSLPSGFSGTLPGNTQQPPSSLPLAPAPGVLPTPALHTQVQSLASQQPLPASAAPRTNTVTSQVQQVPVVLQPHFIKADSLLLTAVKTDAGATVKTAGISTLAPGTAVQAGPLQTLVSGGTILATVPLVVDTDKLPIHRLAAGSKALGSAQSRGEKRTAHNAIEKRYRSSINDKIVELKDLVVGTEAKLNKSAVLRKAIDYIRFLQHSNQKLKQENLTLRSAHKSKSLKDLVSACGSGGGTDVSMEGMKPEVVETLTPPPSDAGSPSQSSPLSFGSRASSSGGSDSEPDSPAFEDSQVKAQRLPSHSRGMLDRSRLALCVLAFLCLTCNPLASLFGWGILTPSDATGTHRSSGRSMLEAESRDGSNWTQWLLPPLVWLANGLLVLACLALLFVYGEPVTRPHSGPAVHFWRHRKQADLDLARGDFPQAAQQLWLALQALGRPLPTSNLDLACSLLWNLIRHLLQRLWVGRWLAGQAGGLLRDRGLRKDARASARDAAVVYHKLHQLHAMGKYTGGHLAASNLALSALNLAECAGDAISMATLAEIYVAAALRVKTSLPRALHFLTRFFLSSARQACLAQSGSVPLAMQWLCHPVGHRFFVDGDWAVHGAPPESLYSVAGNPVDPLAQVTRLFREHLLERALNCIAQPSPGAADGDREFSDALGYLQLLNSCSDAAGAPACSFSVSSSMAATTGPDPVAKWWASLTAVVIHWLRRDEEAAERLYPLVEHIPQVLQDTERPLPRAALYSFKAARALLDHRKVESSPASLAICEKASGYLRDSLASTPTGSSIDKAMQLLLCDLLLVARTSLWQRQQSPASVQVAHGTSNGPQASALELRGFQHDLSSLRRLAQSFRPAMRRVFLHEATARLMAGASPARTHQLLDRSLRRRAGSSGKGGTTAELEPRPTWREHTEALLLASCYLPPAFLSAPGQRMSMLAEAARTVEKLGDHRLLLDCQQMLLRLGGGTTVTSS

[2] = target: T2, FLAG-SREBF1(N), N-terminus of mouse SREBF1, from pcDNA3.1-FLAG-Srebf1(N) in HEK293T (mouse) (UniProt Q9WTN3)
T2 sequence: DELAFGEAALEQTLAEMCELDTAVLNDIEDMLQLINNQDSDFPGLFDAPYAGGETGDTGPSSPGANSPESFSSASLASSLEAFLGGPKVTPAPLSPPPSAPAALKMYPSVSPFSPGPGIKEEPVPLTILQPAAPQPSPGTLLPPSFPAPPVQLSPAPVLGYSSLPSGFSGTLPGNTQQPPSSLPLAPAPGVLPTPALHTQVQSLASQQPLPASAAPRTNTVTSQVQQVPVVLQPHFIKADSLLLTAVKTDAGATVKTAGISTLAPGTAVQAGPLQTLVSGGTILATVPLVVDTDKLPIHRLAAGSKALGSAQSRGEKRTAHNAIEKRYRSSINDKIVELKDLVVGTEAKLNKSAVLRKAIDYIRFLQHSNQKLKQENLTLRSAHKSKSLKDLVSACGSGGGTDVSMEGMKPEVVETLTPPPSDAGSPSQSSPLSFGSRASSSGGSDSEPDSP

[3] = target: T3, FLAG-SREBF2(N), N-terminus of mouse SREBF2 (pcDNA3.1-FLAG-Srebf2(N)) (mouse) (UniProt Q3U1N2)
T3 sequence: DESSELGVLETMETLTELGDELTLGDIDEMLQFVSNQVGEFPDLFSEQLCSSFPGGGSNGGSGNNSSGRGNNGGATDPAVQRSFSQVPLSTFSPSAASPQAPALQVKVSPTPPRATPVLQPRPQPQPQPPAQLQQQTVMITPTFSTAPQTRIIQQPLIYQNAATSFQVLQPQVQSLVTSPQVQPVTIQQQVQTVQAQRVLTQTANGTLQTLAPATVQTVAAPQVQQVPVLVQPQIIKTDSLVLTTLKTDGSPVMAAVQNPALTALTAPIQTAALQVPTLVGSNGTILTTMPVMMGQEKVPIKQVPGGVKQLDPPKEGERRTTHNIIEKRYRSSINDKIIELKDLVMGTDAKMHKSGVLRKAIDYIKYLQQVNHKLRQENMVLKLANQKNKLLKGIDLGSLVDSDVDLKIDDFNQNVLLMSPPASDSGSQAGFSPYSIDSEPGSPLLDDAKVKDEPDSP

- binding [1]: binds
- binding [2]: binds
- binding [3]: binds
B1: myc-tagged mouse ARMC5 (pcDNA3.1-myc-mArmc5) (protein, UniProt Q5EBP3 1-926)
chain: MAAARPALTDSLSFCLAQLTAAAGEGPGGGKDPATNETPLGRALLALRTRHIKAAEGIERFRARGGLRPLLALLRRTAAAGPAPSQAASGSAPSSVASAGSTPGHAPAAESLLTPSLPMRLRKTLDLALSILANCCTEGACRAEVRRLGGILPLVTILQCVKTDSIQNRTARALGNLAMEPESCRDIHSAGAVPFLVESLTACQDSQCLQSIVRALRNLADSPQHRLALAQQGAVRPLAELLATAPDPALTAALVRALLELSRGCSRACAEQLSLGGALGPLVSLASHPKRAIREAAILILANLCAQGLVRPALGNAGGVEVLLGELRRRRSPGGSSSATQQPLVRAVCLLCREAINRARLRDAGGLELLMGLLQDPGASAWHPRVVAALVGFLYDTGALGKLQALGLVPLLARQLCGEAGEEEEEGIEAASWDFPEERTSGQAEGGSFRSLRLWLISEGYAAGPGDISPDWSPERCPMPEPSESVSPTPGQTSMSTPRTLRKPGRIPAATPEEPWGQEGPALLLLSRFSQAPDPSGALVTGPALCGLLAYVTGAPGPPNPRALRILARLTCNPACLEAFVRTYGAALLRAWLVLGVSPDDWPVPHARPVHRSQHRELGEMLLQNLTVQAESPFGVGALTHLLLSGSPEDRVACALTLPFICRKPTLWRRLLLDQGGLRLLLTALTQPAPHPLFLFFAADSLSCLQGLVSPTASPVPLPALPLELDSPPPCLYEPLLGPAPAPAPDLHFVLDSGLQLPAQRAASAAASPFFRALLSGSFAEAQMDLVPLRGLSPGAAWPVLHHLHGCRGCGAALGPVPPPGQPLLGSKAEEALEAAGRFLLPALEEELEEAVGRIHLSPRGGPESVGEVFRLGRPRLAAHCARWTLEPGQCPRKRALALTGLVEAAGEEAGPLTEALLAVVMGIES
